Assay results taken from the supplement of paper PMC3334620.
In all, about 33,000 sequences were measured (“E-score (-0.5 to 0.5)”: median about -0.054, highest 2% from about 0.35 on). This is one part of the list.

What follows are sequences tested against T1, Stb5 (UniProt P38699) (assay: PBM E-score (8-mer binding enrichment) (E-score (-0.5 to 0.5)); higher = stronger / more preferred TF binding; most listed sequences are background and not binding sites). Settings: protein concentration: 200 nM; construct: GST-full length.
T1 sequence: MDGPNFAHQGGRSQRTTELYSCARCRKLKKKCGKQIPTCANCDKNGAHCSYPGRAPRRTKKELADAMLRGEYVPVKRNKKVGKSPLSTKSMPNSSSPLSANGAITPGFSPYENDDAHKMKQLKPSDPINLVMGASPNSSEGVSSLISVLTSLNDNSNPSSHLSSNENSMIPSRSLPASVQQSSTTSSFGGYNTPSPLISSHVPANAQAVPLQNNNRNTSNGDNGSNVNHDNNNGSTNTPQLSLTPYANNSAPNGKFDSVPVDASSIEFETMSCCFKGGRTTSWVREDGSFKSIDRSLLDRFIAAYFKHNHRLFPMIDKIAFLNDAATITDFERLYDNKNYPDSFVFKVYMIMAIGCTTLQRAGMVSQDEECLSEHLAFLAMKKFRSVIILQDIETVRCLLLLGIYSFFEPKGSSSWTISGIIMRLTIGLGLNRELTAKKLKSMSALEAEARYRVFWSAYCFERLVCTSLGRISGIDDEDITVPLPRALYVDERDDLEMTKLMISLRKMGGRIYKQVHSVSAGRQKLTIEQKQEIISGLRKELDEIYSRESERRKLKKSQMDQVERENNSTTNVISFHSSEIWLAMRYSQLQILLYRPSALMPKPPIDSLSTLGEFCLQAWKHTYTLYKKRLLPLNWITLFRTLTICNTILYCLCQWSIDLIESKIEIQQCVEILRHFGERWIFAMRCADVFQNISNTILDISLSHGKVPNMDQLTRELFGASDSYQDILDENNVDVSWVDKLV
Procedure: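 Universal 'all 10-mer' protein binding microarrays (Agilent AMADID 015681) probed with GST-tagged S. cerevisiae TFs (full-length or DBD) made by in vitro transcription/translation (PURExpress), about 100-200 nM. Bound TF was detected with fluorescent anti-GST. Each ungapped 8-mer (which stands for itself and its reverse complement) is scored by the PBM enrichment score (E-score), a modified Wilcoxon-Mann-Whitney statistic from -0.5 to +0.5, computed with the Universal PBM Analysis Suite. Scale: above 0.35 generally sequence-specific binding.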

Sequence | PBM E-score
AGCGGTGG | 0.346
CAAGCTCA | -0.237
AAGTCCTC | -0.066
AATCCTGT | -0.0858
ATTTATCA | 0.185
AGGCCCGA | 0.314
CATGTTTC | -0.14
CTCGTAAA | -0.11
TGATTGAA | -0.0389
ACGAAAGA | -0.152
CTCACTTA | -0.192
ATGACGCG | -0.0733
CGCCCTAG | 0.0592
CACGTGGA | -0.111
AACTGTCC | 0.029
TCGCTTAA | 0.107
AAAGTGTA | -0.244
TTGAACAA | -0.24
AGACCGTA | 0.144
CCCGGCAG | 0.226
CAAGGATC | -0.125
ATCTAAGG | -0.171
ATCCGTGA | 0.151
ACCTAACG | -0.0677
GACCTCGA | -0.102

Sequence | PBM E-score
ACTAGATC | -0.0408
ATGCGTGG | -0.15
CAAGCCCC | 0.145
GAGCGGCA | 0.357
ACTAGCTG | -0.197
AACCCAAA | -0.153
CAGTGACA | -0.271
ATATAAAT | 0.166
AGTTAGCG | -0.0972
CCCGCGAC | 0.281
CACTTAGA | -0.0281
GTAACAGA | -0.00141
CGTTACAA | -0.112
GGAACGCA | -0.0726
ATAACGAG | -0.103
GGACTCAA | 0.269
TACCAGTA | -0.0102
CTATCCTC | -0.0779
ATATCGGC | 0.278
GGAAGTAC | 0.261
GTGCTGAA | -0.115
ACCGACGA | 0.354
GTCCCGAC | 0.3
CATTAGGA | -0.0595
GAAGACTC | -0.0722

Sequence | PBM E-score
TATTAAAA | 0.101
GGTCGTAC | 0.0865
GGGTGGAA | -0.00532
ACCGCGGT | 0.39
AGGTAGAT | -0.184
CCCTTCCG | 0.114
ATATATCC | 0.398
ACGCATTG | -0.216
ATTAGAAT | -0.159
AACGCGAT | -0.137
CTGCAAAA | -0.127
CGCCAGAG | 0.0677
ATTACAGC | 0.0736
CCGAGATC | 0.169
CAGAACCA | -0.292
AAAAGATG | -0.173
GATCGTAA | -0.24
CCCAACTC | -0.0147
CAAGGTTC | -0.145
GACAAGAA | 0.0873
AAAACCTT | 0.00349
CATGGGCC | -0.107
GACGTCGC | -0.274
ACCTGGTG | -0.0417
AAAGGAGT | 0.0801

Sequence | PBM E-score
CGTCAGGA | -0.106
GACTGAAC | -0.0643
GATGTACA | 0.0105
GGTCCAAC | 0.0671
AATCGCGG | 0.198
CACCTGCC | -0.0477
ACAGAATC | -0.16
AGATGTAT | -0.221
TATATTAA | 0.0913
ACTGCGAC | 0.202
AAACGAGG | -0.213
ACCGCTAG | 0.26
CAGTAGCG | 0.123
AACTTGTC | -0.0353
TAACTCGA | -0.135
CTAGGTAA | -0.192
ACACGTGA | -0.103
AAAAAGTA | -0.109
CCCTTTAC | 0.0164
ACTAGAGT | -0.142
AATCTGCG | 0.145
AACAGTAA | -0.0605
ACAGCTCT | -0.34
CTCTAGAG | -0.283
ACTGTTAA | 0.0508

Sequence | PBM E-score
AATGGATA | 0.135
AACTTTCG | -0.138
ACGCCCGC | 0.28
CAACGATG | -0.158
GATGACAC | -0.0254
GTGGGCCA | -0.0853
CATCGTCA | -0.101
GTTCAGCA | -0.246
GTCTGTCA | -0.0781
CCCTCTGA | -0.0305
AGGAAAAG | -0.0495
ATCGAGGC | 0.00531
CCGGTTGA | 0.28
TGCAAAAA | -0.21
GGGGATTA | 0.326
ATCGTGGC | -0.223
ATTTCTCG | 0.0306
AGGAGCGC | 0.0237
GGCTGATA | 0.122
GGCTGCCC | -0.265
GAATTACC | 0.194
GTACGGAC | 0.223
ACGAGCGG | 0.301
GCGCCAGC | 0.112
ATCCCGGA | 0.131

Sequence | PBM E-score
CAACCAGC | -0.168
AAATGGAT | -0.168
ACAGGGGG | -0.194
CGAGTATC | 0.0271
AACCGCGC | 0.273
GAAGTTCA | -0.189
AGGGCCGC | 0.36
AACCAGGT | -0.262
ACTTTCGC | -0.118
AGGTGGAG | -0.162
CTAGCTAG | -0.235
GAAACAAA | 0.00633
CGATGCGA | -0.0934
AGACGACC | -0.193
GCTAGTCC | 0.0729
AGCGACCT | -0.0491
AATTCTCA | -0.167
AAAGAAAG | -0.00166
AATAGCAT | -0.131
AGCTCTGA | -0.246
CGGATGGA | 0.0297
GCCTTATA | 0.131
AATGATCT | -0.281
AGCATACC | -0.102
CCAAAAGC | -0.0336

Sequence | PBM E-score
CAGGCATC | -0.241
AGGATTAT | -0.114
ATCGAACC | -0.103
ACAACTCG | -0.042
ACAGTACC | 0.0909
CATTTACC | -0.0221
AGCATGAG | -0.148
CGTTTCAG | 0.0487
ACGTACCC | 0.0314
CACAGTCA | -0.367
AATATGTG | -0.156
CGTCAAAG | -0.212
CCTTATAA | 0.148
GTGTGGGA | 0.00786
CGAAAACG | -0.00617
CATTCATC | -0.0199
TCAGCGGA | 0.292
AACATTAG | -0.222
TACAAAAA | -0.0475
CAGACGGC | 0.111
GCACAGGC | 0.0152
AGCAGGCG | 0.116
